Measurements as given in PubChem BioAssay AID2675 (National Center for Advancing Translational Sciences (NCATS), 2010).
About 100 (0.036%) of roughly 280,000 compounds were called active. This list was built around the results that the source calls inconclusive (neither active nor inactive); the mix of calls is not that of the screen. Calls come from the whole dose curve; as a rule, active = well fitted inhibition curve with a large enough effect in the signal ratio, with a control signal flat (not every such curve was filed as active); inconclusive = small, poorly fitted or top-dose-only effect, or effect the other way, or a change in a side signal; inactive = no such curve, though single readings can be large or run the other way; the % refers to the signal ratio. A potency beside an inconclusive call is a rough fit, not a confirmed value. A note “side channel” means that the fit belongs to a control or component signal, not to the main read-out.

These compounds were tested against Muscleblind-like protein 1 (Homo sapiens) (UniProt Q9NR56) (assay: qHTS Assay for Inhibitors of MBNL1-poly(CUG) RNA binding). Settings: TR-FRET MBNL1-His/biotin-(CUG)12 binding, 665/545 ratio; activity change, negative = inhibition: at 57.5 µM (top of the series).
UniProt Q9NR56, sequence (Q9NR56 whole entry, looked up): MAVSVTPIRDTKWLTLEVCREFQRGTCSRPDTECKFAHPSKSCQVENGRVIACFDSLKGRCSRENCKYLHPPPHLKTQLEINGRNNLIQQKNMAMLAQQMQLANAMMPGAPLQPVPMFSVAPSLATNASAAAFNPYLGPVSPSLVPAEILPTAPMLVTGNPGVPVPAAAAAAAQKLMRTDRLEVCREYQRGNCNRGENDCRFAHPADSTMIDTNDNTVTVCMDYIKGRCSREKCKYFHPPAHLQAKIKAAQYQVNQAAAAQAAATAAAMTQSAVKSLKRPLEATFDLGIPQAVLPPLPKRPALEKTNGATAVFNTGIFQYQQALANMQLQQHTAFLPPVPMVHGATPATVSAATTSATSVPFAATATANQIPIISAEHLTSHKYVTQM
How it was run: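 His-tagged MBNL1 binding to biotinylated (CUG)12 RNA was measured by TR-FRET using terbium anti-His antibody (0.055 ng/ul final) and streptavidin-XL665 (5 nM final). Compounds were titrated 92 nM to 58 uM; 60 min at room temperature.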
% is set by controls: 0 for no effect and ±100 for the full control effect; potency is the fitted concentration of half-maximal effect; tags give direction and shape of the fitted curve or compound fluorescence and quenching.

Row | Compound | activity change, negative = inhibition | Potency
1 | O=C(Cn1c(=O)n(Cc2ccco2)c(=O)c2c3c(sc21)CCCC3)Nc1ccccc1 | inactive: -16.9% | 
2 | Cc1cc2ncn(C3CC(=O)N(Cc4ccc(N5CCCC5=O)cc4)C3=O)c2cc1C (configuration not stated) |  | inconclusive: 22.4 µM [quencher, side channel, partial curve, poor fit]
3 | C/C(=N/NC(=O)C1CCCN1C(=O)c1ccc([N+](=O)[O-])cc1)c1ccc(Br)cc1 (configuration not stated) |  | inconclusive: 28.2 µM [quencher, single point]
4 | Cc1occc1C(=O)N/N=C/c1ccc(Br)s1 |  | inconclusive: 5.62 µM [quencher, side channel, full curve]
5 | O=[N+]([O-])c1cc(-c2ccc(/C=N/n3cnnc3)o2)ccc1Cl |  | inconclusive: 3.16 µM [quencher, side channel, full curve]
6 | CC(=O)Oc1cccc(N2C(=O)c3cccc4c([N+](=O)[O-])ccc(c34)C2=O)c1 |  | inconclusive: 3.16 µM [quencher, side channel, full curve]
7 | Cc1cc(C)c(S(=O)(=O)c2ccc(Cl)cc2)c(=O)[nH]1 |  | inconclusive: 6.31 µM [fluorescent, side channel, single point]
8 | CCOc1ccc(-n2c(=S)sc3c(=O)n(-c4ccc(F)cc4)c(SCC(=O)O)nc32)cc1 |  | inconclusive: 28.2 µM [quencher, side channel, single point]
9 | Cc1ccc(C(=O)/C=C2\NCCNC2=O)cc1 |  | inconclusive: 39.8 µM [quencher, single point]
10 | COc1ccc(OCc2ccc(/C=N\NC(=O)c3sccc3C)o2)cc1 |  | inconclusive: 10 µM [quencher, side channel, partial curve]
11 | CC(C)(C)N=Cc1c(O)ccc2oc3c(c12)CCCC3 | inactive: -2.12% | 
12 | O=C(CCCN1C(=O)c2cccnc2C1=O)N1CC(=O)N(CCc2ccccc2)C(=O)C1 |  | inconclusive: 15.8 µM [quencher, side channel, partial curve]
13 | O=C(NCCCCCCNC(=O)c1ccccc1O)c1ccccc1O |  | inconclusive: 39.8 µM [fluorescent, side channel, single point]
14 | COc1ccc(C2=NN(C(=O)CCCC(=O)O)C(c3cccs3)C2)cc1OC (configuration not stated) |  | inconclusive: 25.1 µM [quencher, side channel, single point]
15 | CCC(=O)Nc1ccc2nn(-c3ccc(F)cc3)nc2c1 |  | inconclusive: 3.98 µM [quencher, side channel, partial curve]
16 | O=C(c1ccccc1)c1ccc2nc(-c3ccco3)c(-c3ccco3)nc2c1 |  | inconclusive: 17.8 µM [quencher, side channel, partial curve]
17 | CCOC(=O)CSc1ccc(-c2nc3ccccc3[nH]2)cn1 | inactive: 3.75% | 
18 | COc1ccc(-n2c(C)cc(C(=O)CN3C(=O)NC4(CCCc5sccc54)C3=O)c2C)cc1 (configuration not stated) | inactive: 6.64% | 
19 | Nc1ccc([N+](=O)[O-])cc1C(=O)NNC(=O)c1ccco1 |  | inconclusive: 11.2 µM [quencher, side channel, partial curve]

Row | Compound | activity change, negative = inhibition | Potency
20 | O=C(OC1CCOC1=O)c1ccc(-c2nc3ccccc3s2)s1 (configuration not stated) |  | inconclusive: 4.47 µM [quencher, side channel, partial curve]
21 | Cc1ccc(C(=O)NCCCc2ccccc2)c(C)c1 | inactive: -5.77% | 
22 | CN(C(=O)C1CCOC1)c1nnc(-c2cnccn2)s1 (configuration not stated) |  | inconclusive: 39.8 µM [quencher, side channel, single point]
23 | CC(=O)Nc1ccc(S(=O)(=O)Nc2nc3ccccc3nc2-n2ccc(=NC(=O)c3ccc(F)cc3)cc2)cc1 |  | inconclusive: 15.8 µM [quencher, side channel, partial curve]
24 | Cc1ccc(NC(=O)CCNC(=O)c2ccc([N+](=O)[O-])cc2)cc1C |  | inconclusive: 14.1 µM [quencher, side channel, partial curve]
25 | Cc1ccc2c(c1)c(/C=C/c1cc[n+](C)cc1)c(C)n2C |  | inconclusive: 10 µM [quencher, partial curve]
26 | CCOc1ccc(NC(=O)CSc2nnc(Cn3cnc([N+](=O)[O-])n3)n2C)cc1 |  | inconclusive: 15.8 µM [quencher, side channel, partial curve]
27 | CS(=O)(=O)N(CC(=O)Nc1ccccc1C(=O)N1CCCC1)c1cccc([N+](=O)[O-])c1 |  | inconclusive: 28.2 µM [quencher, side channel, partial curve]
28 | CCOC(=O)c1[nH]c2ccc(OC)cc2c1NC(=S)N1CCN(c2ccccn2)CC1 |  | inconclusive: 39.8 µM [fluorescent, single point]
29 | COC(c1ccccc1)c1c(-c2ccccc2)nn(C)c1Cl (configuration not stated) |  | inconclusive: 7.08 µM [quencher, side channel, single point]
30 | O=C1CCCCc2sc(Br)c([N+](=O)[O-])c2N1 |  | inconclusive: 17.8 µM [quencher, side channel, partial curve]
31 | O=C(O)c1cc(N/N=C/c2ccc(-c3ccc(F)cc3)o2)ccc1Cl |  | inconclusive: 25.1 µM [quencher, side channel, partial curve]
32 | CC(=NCCCn1ccnc1)c1c(C)[nH]n(-c2ccc([N+](=O)[O-])cc2)c1=O |  | inconclusive: 6.31 µM [quencher, side channel, partial curve]
33 | C=CCn1c(SCC(=O)Nc2ccccc2CC)nnc1-c1ccncc1 |  | inconclusive: 39.8 µM [fluorescent, side channel, single point]
34 | Cc1ccc(SCCC(=O)N(C)CC(=O)Nc2c(C)cccc2C)cc1 | inactive: -5.69% | 
35 | O=[N+]([O-])c1ccc(C2=Nn3c(Cn4nnc5ccccc54)nnc3SC2)cc1 |  | inconclusive: 6.31 µM [quencher, side channel, partial curve]
36 | C/C(=N\NC(=O)c1c[nH]c2ccccc12)c1ccc(C)o1 | inactive: 2.37% | 
37 | Nc1nonc1-n1nnc(C(=O)N/N=C/c2ccc(OCc3ccccc3)cc2)c1CN1CCCCC1 | inactive: 4.58% | 
38 | O=C(O)CC(NC(=O)C12CC3CC(CC(C3)C1)C2)c1cc([N+](=O)[O-])ccc1Cl (configuration not stated) |  | inconclusive: 14.1 µM [quencher, side channel, partial curve]

Row | Compound | activity change, negative = inhibition | Potency
39 | Cc1ccc(NC(=O)Cn2c(O)c(N=NC(N)=O)c3ccccc32)cc1 |  | inconclusive: 15.8 µM [quencher, side channel, partial curve]
40 | O=C(Nc1ccccc1)c1nnsc1S(=O)c1ccc(Cl)cc1 (configuration not stated) | inactive: 2.87% | 
41 | CC(=O)c1c(-c2ccccc2)c2cc([N+](=O)[O-])ccc2[nH]c1=O |  | inconclusive: 7.08 µM [quencher, partial curve]
42 | N#CC1=C(N)N=C(SCc2ccccc2)C(C(N)=O)C12CCCCC2 (configuration not stated) |  | inconclusive: 31.6 µM [quencher, side channel, single point]
43 | Cn1cc(CCC(=O)N2CCCC(C(=O)c3cccc4ccccc34)C2)cn1 (configuration not stated) |  | inconclusive: 31.6 µM [quencher, side channel, single point]
44 | COc1ccc(C(=O)Oc2cccc3cccnc23)cc1[N+](=O)[O-] |  | inconclusive: 22.4 µM [quencher, side channel, single point]
45 | O=C(CCCN1C(=O)/C(=C/c2ccccc2Cl)SC1=S)NNC(=O)c1cccnc1 |  | inconclusive: 25.1 µM [quencher, side channel, partial curve]
46 | Cc1ccccc1NC(=O)c1cccc2nc3ccccc3nc12 |  | inconclusive: 3.98 µM [quencher, side channel, single point]
47 | CC(C(=O)N1CCCC1)c1ccc([N+](=O)[O-])cc1 (configuration not stated) |  | inconclusive: 31.6 µM [quencher, side channel, single point]
48 | O=C(NCC(c1ccco1)N1CCOCC1)c1cccc([N+](=O)[O-])c1 (configuration not stated) |  | inconclusive: 28.2 µM [quencher, side channel, single point]
49 | COc1ccc(C(CC(=O)O)NC(=O)c2cc3cc(Br)ccc3oc2=O)cc1OC (configuration not stated) |  | inconclusive: 25.1 µM [quencher, side channel, partial curve]
50 | CCOc1ccccc1NC1=C(Cl)C(=O)N(c2ccccc2)C1=O |  | inconclusive: 39.8 µM [quencher, single point]
51 | CCOc1ccc(CCNC(=O)COC(=O)c2cc([N+](=O)[O-])ccc2N2CCOCC2)cc1OCC |  | inconclusive: 11.2 µM [quencher, side channel, partial curve]
52 | CCCCOC(=O)C1=C(C)NC2(O)c3ccccc3C(=O)C12O (configuration not stated) |  | inconclusive: 1 µM [quencher, side channel, full curve, poor fit]
53 | O=C(CSc1cccc[n+]1[O-])c1ccc(Cl)s1 |  | inconclusive: 31.6 µM [quencher, side channel, single point]
54 | CCOc1ccc(/C=N/n2c(SC)nnc(C(C)(C)C)c2=O)cc1 | inactive: -7.9% | 
55 | CC(C)CN(C(=O)COC(=O)c1ccc2ccccc2n1)C1CCS(=O)(=O)C1 (configuration not stated) |  | inconclusive: 17.8 µM [quencher, side channel, partial curve]
56 | CC(=O)Nc1ccc(Nc2c3c4c(cccc4n(C)c2=O)C(=O)c2ccccc2-3)cc1 |  | inconclusive: 3.16 µM [quencher, side channel, full curve]
57 | COc1ccc(CNC(=O)COC(=O)/C=C/c2ccc(S(=O)(=O)N3CCOCC3)cc2)cc1 |  | inconclusive: 28.2 µM [quencher, side channel, single point]
